# Some of the results follow.
# Molecular target: T1, OsWOX13 (Oryza sativa, UniProt Q5QMM3 1-267)
# T1 sequence: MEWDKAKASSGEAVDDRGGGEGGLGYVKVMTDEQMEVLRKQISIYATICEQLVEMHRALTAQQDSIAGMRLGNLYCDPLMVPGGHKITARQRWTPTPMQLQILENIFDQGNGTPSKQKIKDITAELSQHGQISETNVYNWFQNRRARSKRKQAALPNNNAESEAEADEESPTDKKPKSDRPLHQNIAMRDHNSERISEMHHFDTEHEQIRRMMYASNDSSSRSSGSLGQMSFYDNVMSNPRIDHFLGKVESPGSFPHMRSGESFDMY
# Assay: protein-binding microarray (RPBM); PBS, 2% BSA, 51.3 ng/ul salmon testes DNA, 50 uM zinc acetate, 200 nM TF, 25 C, 1 h; high values mean tight binding
# Conditions: protein: recombinant; tags: N-terminal polyhistidine and DsRed monomer fusion (pET32a); label: CyDye5-dUTP incorporated in the synthesized complementary strand; 3' TTTTT single-stranded linker to array surface; dsDNA, one strand shown
# Procedure, shortened: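 Ni–NTA purification followed expression in E. coli BL21-CodonPlus of transcription factors fused N-terminally to a polyhistidine tag and DsRed. At 200 nM in PBS with 2% BSA, salmon testes DNA and 50 µM zinc acetate, the protein was incubated for 1 h at 25 °C with a custom Agilent array that had been primer-extended with Cy5-dUTP and blocked with 2% BSA. After washing, the array was read on an Axon 4000B scanner. The binding signal is per-feature fluorescence intensity in arbitrary units.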
row,Sequence,binding signal
1,GCTTGATATGCGTAATTTCCTCGGAACTCATATAATACTTCGGAGTCACCTAGTGCAG,7590 fluorescence intensity (a.u.)
2,CCAACCAATGACTATAAACGTAATTACTAATTATAGGAAGCGGAGTCACCTAGTGCAG,9310 fluorescence intensity (a.u.)
3,GTCATGCAACCAATCACTGAAATTATGCTTATACATACACCGGAGTCACCTAGTGCAG,19500 fluorescence intensity (a.u.)
4,CAGATTAGATCAGAATTGAGGCGTTTTGGTCCCACTGAATCGGAGTCACCTAGTGCAG,5260 fluorescence intensity (a.u.)
5,GTAATTAATTACTGCAGAGAAACGACAGTGCTGATAACCGCGGAGTCACCTAGTGCAG,38800 fluorescence intensity (a.u.)
6,ATTCATTGACAAGTTAAGGGACCTTAGATGAACTTATTCCCGGAGTCACCTAGTGCAG,4620 fluorescence intensity (a.u.)
7,ATGGACGGTTTGATTGATGATCAACTCAAAGTCCAACAGACGGAGTCACCTAGTGCAG,43900 fluorescence intensity (a.u.)
8,GAATCCTGAGATTGACGAAGTCACCACTTGCATCGTCGACCGGAGTCACCTAGTGCAG,14000 fluorescence intensity (a.u.)
9,TTAGGTTGATGTGATGGCTAATTTATACAATAATATCTTACGGAGTCACCTAGTGCAG,4710 fluorescence intensity (a.u.)
10,ATTCTTCGGTTCTTGCTAATTGGTTGTTTGATCTGGAAGACGGAGTCACCTAGTGCAG,5040 fluorescence intensity (a.u.)
11,CAGATGACAACTGCTGATTTTGACTTTGACTCTGAATCTGCGGAGTCACCTAGTGCAG,9960 fluorescence intensity (a.u.)
12,AACTCAAATTAAATTTCGTTGCAACTGATAAGCCAACAACCGGAGTCACCTAGTGCAG,7460 fluorescence intensity (a.u.)
13,TATTGATTGCGCAATTATTCGGCAGCGTCTATCTGTCTCTCGGAGTCACCTAGTGCAG,43800 fluorescence intensity (a.u.)
14,GGTCACATATATTAGATTGGGGTCACATTTAAGGGAGTCACGGAGTCACCTAGTGCAG,4740 fluorescence intensity (a.u.)
15,GCCTCTAATTCAATCCGTTACAGATTAAATCATTCATGACCGGAGTCACCTAGTGCAG,13000 fluorescence intensity (a.u.)
16,ATAAACAAATTAGGCCCACAAGTGAATTTGGCCCACTTCACGGAGTCACCTAGTGCAG,6440 fluorescence intensity (a.u.)
17,ACTAACCACTCATTAACGTGATCACGCTTGTCTATCATTGCGGAGTCACCTAGTGCAG,9080 fluorescence intensity (a.u.)
18,TTCAAAATTAGTTGTATTTAGCAGCACAATTATAAAAGGGCGGAGTCACCTAGTGCAG,5050 fluorescence intensity (a.u.)
19,TTTGATAGGAACCGATTTCAATTTGTGATTCCTACGTATACGGAGTCACCTAGTGCAG,14700 fluorescence intensity (a.u.)
20,GCAAATTGTCCATCTCTGACGCCTCATCTGAATTGACTGACGGAGTCACCTAGTGCAG,13700 fluorescence intensity (a.u.)
21,TCAACTGATGACTTGGATTGGGTCTCCAGCATGTATGGTCCGGAGTCACCTAGTGCAG,8070 fluorescence intensity (a.u.)
22,AGTTATTTCTAAATTATATTAATATATGGACTCTAGTCTCCGGAGTCACCTAGTGCAG,5540 fluorescence intensity (a.u.)
23,GATTACATTTCAATTCAATTTCAATCCCATTCACTTTTGCCGGAGTCACCTAGTGCAG,5750 fluorescence intensity (a.u.)
24,ATAACTAATATTTAATTAATTATACGTTAATACATATATTCGGAGTCACCTAGTGCAG,11900 fluorescence intensity (a.u.)
25,TGACTAATTGGCTTGGTGATACCGAGTACTGCTCCCTTCGCGGAGTCACCTAGTGCAG,49100 fluorescence intensity (a.u.)
26,GCCAATTACAAATTCAACACCTAAATTTAAGCAAACACATCGGAGTCACCTAGTGCAG,7010 fluorescence intensity (a.u.)
27,ATAATTACTTAAATTGTTTGAATAAGACGAACGATCAAACCGGAGTCACCTAGTGCAG,29600 fluorescence intensity (a.u.)

row,Sequence,binding signal
1,GGTAATTGATCGATCCTTGACTTCTTAATGCATATTATTGCGGAGTCACCTAGTGCAG,29300 fluorescence intensity (a.u.)
2,AGCAAATTAACTACAACTGCTAAAGCTAGGCTGTAACCCACGGAGTCACCTAGTGCAG,15500 fluorescence intensity (a.u.)
3,TTAATGGACGCATGGACGAAATTGATCGGAACGGTTGGAACGGAGTCACCTAGTGCAG,3210 fluorescence intensity (a.u.)
4,TTGATTGGAAAGATTGGAAAGAATTGAATGCGAATTGGTACGGAGTCACCTAGTGCAG,34500 fluorescence intensity (a.u.)
5,ATGCAGTGTGATTTTAGGTGATTACTACTCCATTCTTGCTCGGAGTCACCTAGTGCAG,13900 fluorescence intensity (a.u.)
6,GCCAACCTTATAGCTAATTATTATATATATTGACTTTAAGCGGAGTCACCTAGTGCAG,4860 fluorescence intensity (a.u.)
7,GTGTGCAGACTGGTCAATTAGAAACACACATGCTTTTGAACGGAGTCACCTAGTGCAG,3470 fluorescence intensity (a.u.)
8,TTGTAATTTTCCCAACTTCAAATTCCAGCCCATTTCGAATCGGAGTCACCTAGTGCAG,3560 fluorescence intensity (a.u.)
9,AAGCCAATTAAACAACCAGATACTCAAGTTATAACATAATCGGAGTCACCTAGTGCAG,3700 fluorescence intensity (a.u.)
10,AGCAAATGATGGGCTTTCATGGCTGCTTCCATGGACGTGGCGGAGTCACCTAGTGCAG,4780 fluorescence intensity (a.u.)
11,AATCCTATGCTAATTCATCAAATTAGACTCGATTCTATCGCGGAGTCACCTAGTGCAG,4540 fluorescence intensity (a.u.)
12,TGGTTGATTTGATGAGATGAGATCCCAAACTATTACAAAACGGAGTCACCTAGTGCAG,25700 fluorescence intensity (a.u.)
13,CACTTTTAATCAGGTGATTAGGATTTACCAGGTGCACACACGGAGTCACCTAGTGCAG,16500 fluorescence intensity (a.u.)
14,CTAATAATGAAATTTAGACTTATATTAGGACTATATATATCGGAGTCACCTAGTGCAG,5550 fluorescence intensity (a.u.)
15,GCGATTTGATTGATGCTGACCATCTCACCTCAACCGTCGGCGGAGTCACCTAGTGCAG,49300 fluorescence intensity (a.u.)
16,TTTGTCACTCTTGTGACATGTCAATTAACGATTTGTCACACGGAGTCACCTAGTGCAG,6810 fluorescence intensity (a.u.)
17,TCATAAATTATCCGTATCATATTTAATTTATACTGTGGCCCGGAGTCACCTAGTGCAG,38400 fluorescence intensity (a.u.)
18,TCCAGGTGATGGTAATGATATTGACATGCCCTCATCTAGTCGGAGTCACCTAGTGCAG,3770 fluorescence intensity (a.u.)
19,ATTAAATTGATATTAGAACAAACTAAATACTACGAGGTCCCGGAGTCACCTAGTGCAG,38500 fluorescence intensity (a.u.)
20,ATAGGGAGTTACTAATTATCTTGATTCTTGTGGCACATTTCGGAGTCACCTAGTGCAG,3200 fluorescence intensity (a.u.)
21,AAACCTTCAAATTAGTAATGGCATGTGTCTAATTAACCCACGGAGTCACCTAGTGCAG,5310 fluorescence intensity (a.u.)
22,CACGAACCCAATCAATCCAATGGATTTCCATCCTTGTAAACGGAGTCACCTAGTGCAG,8440 fluorescence intensity (a.u.)
23,ATGTTATCAAATTTATAGGAAAATTGATCAGCATCTATAACGGAGTCACCTAGTGCAG,19600 fluorescence intensity (a.u.)
24,AGTATAATGACTGTTAGATCTCCATAAAACTGGCCACAAACGGAGTCACCTAGTGCAG,3510 fluorescence intensity (a.u.)
25,CTTAATTATTCGTGATTTTGTAGTAGAATATCATGCTAATCGGAGTCACCTAGTGCAG,50500 fluorescence intensity (a.u.)
26,GGAAGATTGCCATCAGCAATAGCAAGGGTCACTTCTTTGTCGGAGTCACCTAGTGCAG,13000 fluorescence intensity (a.u.)
27,GAAACAGCACAAATTTTGATGTGACAGCTTCATATTTCCCCGGAGTCACCTAGTGCAG,4420 fluorescence intensity (a.u.)
